Results reported in PubChem BioAssay AID1645887 (National Center for Advancing Translational Sciences (NCATS), 2021).
Where “and” joins values, the source holds several entries; their conditions need not be identical. Identical values can stand only once. About 40 (0.2%) of roughly 16,000 compounds were called active. Roughly 1% stayed inconclusive and do not appear here. Calls follow the shape of the dose curve; as a rule, active = well fitted activation curve with a large enough effect; inconclusive = small, poorly fitted or top-dose-only effect, or another doubt; inactive = no such curve, though single readings can be large or run the other way. This is one part of the list.

What follows are compounds tested against Rap guanine nucleotide exchange factor 4 (Homo sapiens) (UniProt Q8WZA2) (assay: Validation qHTS for agonist of cAMP-regulated guanine nucleotide exchange factor 4 (EPAC2)). Conditions: EPAC2 Rap1B BODIPY-GDP exchange, fluorescence; activation: stronger effect = higher value.
Chain of UniProt Q8WZA2 (Q8WZA2 whole entry, looked up): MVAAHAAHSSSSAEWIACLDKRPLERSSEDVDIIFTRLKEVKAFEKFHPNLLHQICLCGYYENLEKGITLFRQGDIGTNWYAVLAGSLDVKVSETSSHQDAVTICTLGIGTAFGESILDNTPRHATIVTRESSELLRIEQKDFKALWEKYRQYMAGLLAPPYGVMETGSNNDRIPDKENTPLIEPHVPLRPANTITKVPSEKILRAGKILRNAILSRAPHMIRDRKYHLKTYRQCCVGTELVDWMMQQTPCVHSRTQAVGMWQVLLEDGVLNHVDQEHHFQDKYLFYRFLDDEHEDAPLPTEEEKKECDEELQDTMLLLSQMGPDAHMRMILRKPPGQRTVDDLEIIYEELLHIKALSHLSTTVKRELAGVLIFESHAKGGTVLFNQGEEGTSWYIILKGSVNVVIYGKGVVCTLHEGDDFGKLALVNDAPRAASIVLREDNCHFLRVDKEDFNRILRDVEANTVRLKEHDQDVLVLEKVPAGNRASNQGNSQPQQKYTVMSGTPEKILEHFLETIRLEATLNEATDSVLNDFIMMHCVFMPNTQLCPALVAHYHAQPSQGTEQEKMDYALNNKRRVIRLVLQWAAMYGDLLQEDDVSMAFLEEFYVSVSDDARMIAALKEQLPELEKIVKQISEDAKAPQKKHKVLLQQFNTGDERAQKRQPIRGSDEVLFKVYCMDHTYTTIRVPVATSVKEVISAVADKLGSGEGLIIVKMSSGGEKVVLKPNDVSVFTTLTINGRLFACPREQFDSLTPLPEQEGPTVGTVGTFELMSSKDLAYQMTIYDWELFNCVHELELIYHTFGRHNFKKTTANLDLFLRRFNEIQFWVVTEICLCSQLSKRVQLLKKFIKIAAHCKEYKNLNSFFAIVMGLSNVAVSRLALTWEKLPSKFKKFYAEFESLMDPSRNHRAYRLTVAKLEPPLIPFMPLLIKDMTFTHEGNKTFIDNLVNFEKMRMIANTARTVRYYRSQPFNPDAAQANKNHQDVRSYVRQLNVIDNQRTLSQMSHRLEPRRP
Outline: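 Signal normalized against 6.5 mM cAMP as agonist control. Mix of EPAC2 (100 nM), RAP1B-BODIPY-GDP (250 nM) and GDP (50 uM) was read kinetically at 480/540 nm, every 5 min over 30 min, after 5 min room-temperature incubation with compound.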
% is scaled to controls: 0 for no effect and ±100 for the full control effect.
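Also: exchange makes BODIPY-GDP fluorescence drop when released from Rap1B; series mostly up to about 150 µM.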

activation, inactive:
CC1(C)O[C@@H]2C[C@H]3[C@@H]4C[C@H](F)C5=CC(=O)CC[C@]5(C)[C@H]4[C@@H](O)C[C@]3(C)[C@]2(C(=O)CO)O1 8.65%
Cc1ccccc1-c1ccc2ncnc(N(C)Cc3ccco3)c2c1 -2.29%
CC(=O)OCC(=O)[C@@]1(O)CCC2C3CCC4=CC(=O)CC[C@@]4(C)[C@]3(F)C(O)C[C@]21C (some centres undefined) -14.6%
C/C(Nc1ccc2oc(=O)ccc2c1)=C1/C(=O)CC2[C@@H]1C2(C)C (some centres undefined) -2.61%
COc1cc(=O)n2c(c1C(=O)NC(C)c1ccco1)CCN(Cc1cc3ccccc3o1)CC2 (centres undefined) -3.58%
Cn1c(=O)c(-c2ccccc2)nc2cnc(N3CCNCC3)nc21 -2.01%
O=C1N=C(O)CN1/N=C/c1ccc(-c2ccc([N+](=O)[O-])cc2)o1 -6.72% and -7.68%
CC1=CC(=O)OC1Cc1ccc2ccccc2n1 (centres undefined) -19.6%
Cc1cnc(CNc2cc(-c3ccccc3C)ncn2)cn1 -5.22%
Cn1cccc1C(=O)N1CCC2(CCN(Cc3ccc(C#N)cc3)CC2)CC1 -4.2%
COCC(=O)N1CCC2(CC1)CN(c1cccc(-c3ccccc3)c1)C2 -17%
c1cncc(CNc2ccnc(-c3cccnc3)n2)c1 -12.7%
COc1ncc2nc(CCc3ccccc3)c(=O)n(C3CC3)c2n1 -8.18%
CN(C(=O)CCCOc1ccc2[nH]c(=O)ccc2c1)C1CCCCC1 -19.8% and 2.33% and -57%
NNC(=O)c1ccncc1 -4.63% and 1.79% and -8.32%
Nc1ncnc2c1ncn2[C@@H]1O[C@H](COP(=O)(O)OP(=O)(O)OC[C@H]2OC(O)[C@H](O)[C@@H]2O)[C@@H](O)[C@H]1O (some centres undefined) -3.1%
COc1ccccc1CCn1c(=O)cnc2cncnc21 -7.61%
N#Cc1ccc(CN2CCC3(CC2)CCN(C(=O)c2cccc(F)c2)CC3)cc1 -10.5%
COc1cccc(-c2cncnc2NCc2cccnc2)c1 -5.53%
COc1cccc(-c2ccc(O)c(CNC(c3ccccc3)c3ccc(Cl)cc3)c2)n1 (centres undefined) 2.58%
COc1cc2nc(N(C)C)c(CNCc3nonc3C)cc2c(OC)c1OC -13.3%
FC(F)(F)c1cc(CN2CC3(CCNCC3)C2)cc(C(F)(F)F)c1 1.1%
O=c1c(-c2cccc(F)c2)nc2cncnc2n1Cc1ccc(F)cc1 5.27%
CN(C)c1ncc2nc(-c3cn(C)c4ccccc34)c(=O)n(C[C@H]3CCCO3)c2n1 -6.67%
Cn1cccc1C(=O)N1CCC[C@@]2(CCN(c3ncccn3)C2)C1 -12.3%
CN1CC[C@@]2(CCCN(C(=O)c3cccn3C)C2)C1 -24.2%
OCc1cc([C@@H](O)CNCCCCCCOCCCCc2ccccc2)ccc1O -35.4%
COC(=O)N1CCC2(CCCN(c3cccc(-c4ccccc4)c3)C2)CC1 10.3%
CC(C)(Oc1ccc(C2CCCc3ccccc32)cc1)C(=O)O (centres undefined) -5.33%
Cc1ccc2cc(CNC(C)CO)c(N3CCC(O)CC3)nc2c1 (centres undefined) -2.55%
CC(=O)O[C@]1(C)CC[C@]23CC1C(C)(C)C2CC[C@@H]3C (some centres undefined) -14.3%
CN(C)c1ccc(/C=C/c2ccnc3ccccc23)cc1[N+](=O)[O-] -6.84%
O=C1CCC[C@@H]2C[C@@]3(C[C@@H]4CCN1[C@H]24)Nc1cc([N+](=O)[O-])ccc1NC3=NCc1ccccc1 -5.87%
COc1ccc(-c2ccc3cc(C(=O)O)ccc3c2)cc1C12CC3CC(CC(C3)C1)C2 -11.6%
O=C(O)/C=C/C(=O)Nc1ccc(S(=O)(=O)Nc2nccs2)cc1 -4.2%
C[C@@]12C(=O)OC(=O)[C@@]1(C)[C@@H]1CC[C@@H]2O1 -29.3%
COc1c2c(nc3occc13)C(CC=C(C)C)(OC)C(=O)C=C2 (centres undefined) -18.8%
COc1ccc(-n2c(=O)cnc3cnc(N4CCN(C)CC4)nc32)cc1 -6.38%
C=C[C@@H]1c2ccccc2N(S(=O)(=O)c2ccc(C)cc2)[C@H](c2ccc(OC(C)=O)cc2)C1(C#N)C#N -28.4%
FC(F)(F)c1ccccc1-c1nccc(NCc2ccccc2)n1 -25.8%
COCCn1c(=O)c(-c2cccs2)nc2cnc(Oc3ccc(OC)cc3)nc21 3.9%
Cc1nc2cc(NC(=O)[C@@H]3C[C@@H](Sc4ccccn4)CN3Cc3ccc4c(c3)OCCO4)ccc2s1 0.873%
CC(=O)OCC1=C(C(=O)O)N2C(=O)[C@@H](NC(=O)Cc3ccccc3)[C@H]2SC1 7.17%
CCN1CCCC1CNC(=O)c1cc(S(N)(=O)=O)ccc1OC (centres undefined) 0.769% [middle of 4 runs]
C[N+]1(CC(=O)c2ccccc2)CCc2ccccc2C1 (centres undefined) -15%
CC(=O)OC1CCC2(C)C(CCC3(C)C2C(=O)C=C2C4CC(C)(C(=O)OCCN5CCCCC5)CCC4(C)CCC23C)C1(C)C (centres undefined) -8.66%
CN1[C@H](CC(=O)c2ccccc2)CCC[C@H]1C[C@H](O)c1ccccc1 5.74%
O=C(c1ccc(OCCCc2cnc[nH]2)cc1)C1CC1 -3.61%
COCC(=O)N1CCC2(CC1)CN(Cc1ccc(C#N)cc1)C2 0.163%
C[C@]12CCC(=O)C=C1CCC1C2C(O)C[C@]2(C)C1CC[C@]2(O)C(=O)CO (some centres undefined) -12.8%
CC(=O)OC1CCC2(C)C3=C(CCC2C1(C)C)[C@@]1(C)CCC(C(C)CCC=C(C)C)[C@@]1(C)CC3 (some centres undefined) -10.4%
c1ccc2ccccc2c1 -7.81%
O=C(O)c1cc2cc(F)ccc2[nH]1 -17.2% and -10.3%
CN1CCN(c2ncc3nc(-c4cccs4)c(=O)n(-c4ccccc4)c3n2)CC1 18%
O=c1c(-c2cccc(Cl)c2)nc2cncnc2n1Cc1ccccc1 0.466%
O=C1C(Nc2ccccc2)=CC(=O)c2ncccc21 -9.69%
CC(=O)NCCNc1ncncc1-c1ccccc1C 1.68%
CCOC(=O)C[C@H]1c2ccccc2S(=O)(=O)N1Cc1ccc(Cl)cc1 -16.7%
CCCCCCCCCCCC(=O)[O][Sn]([CH2]CCC)([CH2]CCC)[O]C(=O)CCCCCCCCCCC -9.87%
COCCn1c(=O)c(CCc2ccccc2)nc2cnc(N3CCNCC3)nc21 -17.7%
CC(C)(C)c1nnc(NS(=O)(=O)c2ccccc2)s1 -0.0702%
CCOC(=O)C[n+]1cccc(Br)c1 -19.4%
CCCCCCCNS(=O)(=O)c1cccc2c(Cl)cccc12 -22.8%
Cn1c(=O)c(-c2cc(F)cc(F)c2)nc2cncnc21 -11.2%
Cc1cc(=O)c(C(=O)N[C@@H](C(=O)N[C@@H]2C(=O)N3C(C(=O)O)=C(CSc4nnnn4C)CS[C@H]23)c2ccc(O)cc2)c[nH]1 7.25%
CCCCc1oc2ccccc2c1C(=O)c1cc(I)c(OCCN(CC)CC)c(I)c1 -14.8% [middle of 5 runs]
CC(C)[C@H]1COCCS(=O)(=O)N1Cc1cccc(Cl)c1 -26%
CN(Cc1cnc2nc(N)nc(N)c2n1)c1ccc(C(=O)NC(CCC(=O)O)C(=O)O)cc1 (centres undefined) -8.12%
COc1cccc(Cn2c(=O)cnc3cnc(OC)nc32)c1 3.83%
O=C(O)c1cccnc1 -15.9%
CN1CCN(C2=Nc3ccccc3Cc3ccccc32)CC1 -13.1%
CCCCC/C=C\C/C=C\CCCCCCCC(=O)O -40.4% and -6.78%
Cc1cccc(N(C)C(=S)Oc2ccc3ccccc3c2)c1 13.4% and 0.98%
CC(C)N1C[C@@H](NCc2ccccc2O)C[C@H]1C(=O)N1CCN(c2cccc(C(F)(F)F)c2)CC1 -24.8%
CC1(C)SC2C(NC(=O)C(N)c3ccccc3)C(=O)N2C1C(=O)O (centres undefined) -4.06%
C=CCNC1=C2C[C@@H](C)C[C@H](OC)[C@H](O)[C@@H](C)/C=C(\C)[C@H](OC(N)=O)[C@@H](OC)/C=C\C=C(/C)C(=O)NC(=CC1=O)C2=O -6.03%
O=S1(=O)CCO[C@H]2Cc3ccccc3[C@H]2N1Cc1cccc(F)c1 -14.5%
Cc1cc(=O)cc2oc3cc(N)c(-c4c(C)cc(O)cc4O)c(C)c3nc1-2 -10.3%
N[C@@H](COP(=O)(O)O)C(=O)O -4.6% [middle of 4 runs]
CCCCCC(=O)O[C@H](CC(=O)O)C[N+](C)(C)C -14.7%
Cc1cccc(-c2cc(=O)c3cc(Br)ccc3o2)c1 5.32%
O=S(=O)(O)c1ccc(Nc2ncnc3c2ncn3[C@@H]2O[C@H](CO)[C@@H](O)[C@H]2O)cc1 0.857%
CCCCc1cc2c(=O)c(C(=O)OC)c[nH]c2cc1OCc1ccccc1 6.12%
O=c1[nH]c(=O)n([C@H]2C[C@H](O)[C@@H](CO)O2)cc1I -3.95%
